Here are results for 42 sequences from article PMC7819943, “Rice protein-binding microarrays: a tool to detect cis-acting elements near promoter regions in rice”.

This is one part of the list.

The test deals with T1, OsWOX13 (Oryza sativa, UniProt Q5QMM3 1-267).
T1 sequence: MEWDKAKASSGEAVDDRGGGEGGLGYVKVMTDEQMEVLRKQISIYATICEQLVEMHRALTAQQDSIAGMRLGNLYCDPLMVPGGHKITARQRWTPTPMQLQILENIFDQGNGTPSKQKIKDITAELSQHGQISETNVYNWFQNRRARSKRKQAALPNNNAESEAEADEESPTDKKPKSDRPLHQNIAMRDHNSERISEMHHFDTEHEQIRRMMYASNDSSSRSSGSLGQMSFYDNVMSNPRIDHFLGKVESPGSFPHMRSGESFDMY
The test is described as follows: protein-binding microarray (RPBM); PBS, 2% BSA, 51.3 ng/ul salmon testes DNA, 50 uM zinc acetate, 200 nM TF, 25 C, 1 h; high values mean tight binding. Conditions: protein: recombinant; tags: N-terminal polyhistidine and DsRed monomer fusion (pET32a); label: CyDye5-dUTP incorporated in the synthesized complementary strand; 3' TTTTT single-stranded linker to array surface; dsDNA, one strand shown. The method, boiled down:
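Transcription factors, each fused N-terminally to a polyhistidine tag and DsRed, were expressed in E. coli BL21-CodonPlus and purified on Ni–NTA. A custom Agilent array was made double-stranded by primer extension with Cy5-dUTP and blocked with 2% BSA. It was incubated with 200 nM protein in PBS, 2% BSA, salmon testes DNA and 50 µM zinc acetate at 25 °C for 1 h, then washed. The binding signal is per-feature fluorescence intensity (arbitrary units) read on an Axon 4000B scanner.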
For the sequence “ATGAAATTTCACTTTTAATTAGAGGGAGCTCATAGAGAAACGGAGTCACCTAGTGCAG”, the binding signal is 3330 fluorescence intensity (a.u.).

For the sequence “GTCCCTGATTAGATCACACAAGATTTGATCGCTATTCGATCGGAGTCACCTAGTGCAG”, the binding signal was 42400 fluorescence intensity (a.u.).

“GGTGGGGCTGTTAGTTAATTATAATGGCTTAATCCAGAGACGGAGTCACCTAGTGCAG”: the binding signal was 10500 fluorescence intensity (a.u.).

In the case of “CTAATCAATCAAGGCTAATTTAGTGATTAGCATTGAAGTCCGGAGTCACCTAGTGCAG”, the binding signal was 34700 fluorescence intensity (a.u.).

“CGAATCTTGATGGGAAGTTTAGACGGCTGAGATTTCGCGGCGGAGTCACCTAGTGCAG”: the binding signal was 3380 fluorescence intensity (a.u.).

Regarding “CGGATTAGATCATTACAAGGCGTCCAAATCAAAGTGGCGGCGGAGTCACCTAGTGCAG”, the binding signal is 3930 fluorescence intensity (a.u.).

For the sequence “TACACTAGCTAATTGGCTTGATCATTGTTCATCCTAAGAACGGAGTCACCTAGTGCAG”, the binding signal was 13500 fluorescence intensity (a.u.).

As for “CTGACGATGACAGATTATTGTCGGGCACAGAGCGTAGTACCGGAGTCACCTAGTGCAG”, the binding signal is 10500 fluorescence intensity (a.u.).

With “GGTTTAAATTTTAAAAGTTTGATCAAATATTATCCTAAACCGGAGTCACCTAGTGCAG”, the binding signal was 4900 fluorescence intensity (a.u.).

Take “GGACTTTTAATATAATAGATAGATAATATATACATGGTTACGGAGTCACCTAGTGCAG”: the binding signal was 5680 fluorescence intensity (a.u.).

With “AGATATGTGCCCATAATTAATTAATTAAGTAGATAATATCCGGAGTCACCTAGTGCAG”, the binding signal is 13600 fluorescence intensity (a.u.).

In the case of “AAAATTGACGATTTTCGCAGACGGTCCGCCTGGGAAGATTCGGAGTCACCTAGTGCAG”, the binding signal is 20100 fluorescence intensity (a.u.).

As to “ACTTCATTGACGGTTTGACACTAATCCTAACATTCACATTCGGAGTCACCTAGTGCAG”, the binding signal was 6430 fluorescence intensity (a.u.).

Consider “TGATGGATTAATATATGATTAATTAAGTATTAGCTTAAACCGGAGTCACCTAGTGCAG”, for which the binding signal was 13200 fluorescence intensity (a.u.).

Take “TTTGTGCAAATTAGGCCTATTAATAAAGCCCATTGGGCTTCGGAGTCACCTAGTGCAG”: the binding signal is 3640 fluorescence intensity (a.u.).

For “ATAATGATTTATGTAATCATTTAATAGATATAAATGGTTACGGAGTCACCTAGTGCAG”, the binding signal was 34600 fluorescence intensity (a.u.).

Regarding “GTGTTATTTATCAATTAAATACCAAATTCAAGATCTATATCGGAGTCACCTAGTGCAG”, the binding signal is 11200 fluorescence intensity (a.u.).

In the case of “GGCTCGATTGAACAACCCCACCTGCGAGGGCCGATTCCCCCGGAGTCACCTAGTGCAG”, the binding signal was 4140 fluorescence intensity (a.u.).

Take “TGATTTTAGTCAATTGATGATCAATATATAACGGATGGAACGGAGTCACCTAGTGCAG”: the binding signal is 7850 fluorescence intensity (a.u.).

With “ATCCATCAATTTATATAGAAATCGATGATCAGTTGCTATACGGAGTCACCTAGTGCAG”, the binding signal was 13400 fluorescence intensity (a.u.).

Consider “TTGAGAGATTTGTCAAAATTGATGCCATATCTCAAAGGTACGGAGTCACCTAGTGCAG”, for which the binding signal is 7530 fluorescence intensity (a.u.).

As for “CAAAGAAATGATTTATTATAGTAGGTGTTAATTAGCTTTACGGAGTCACCTAGTGCAG”, the binding signal is 7810 fluorescence intensity (a.u.).

Turning to “GGCTAATTTGGCGAGGTAATACGGTAGTATAGCACGGTTACGGAGTCACCTAGTGCAG”, the binding signal is 10500 fluorescence intensity (a.u.).

Consider “CCCGATAATCACAATCTATTTGACAACTTGATAACAAATTCGGAGTCACCTAGTGCAG”, for which the binding signal was 18900 fluorescence intensity (a.u.).

For the sequence “GGGTGCTGAAATTGATATACGATCAATTGTTGTCGGTGATCGGAGTCACCTAGTGCAG”, the binding signal was 14000 fluorescence intensity (a.u.).

As for “TAATGGTTTTCAGACAAATGGATAATTAAGCTGATAGCGACGGAGTCACCTAGTGCAG”, the binding signal is 65400 fluorescence intensity (a.u.).

In the case of “GAATTGATGAATGTTGAATTTCTGGGTTAATATGTTGCTACGGAGTCACCTAGTGCAG”, the binding signal was 13200 fluorescence intensity (a.u.).

Turning to “ACAAGTTTATCCTAATTGCTTCCTGCCACACACTCGTCAACGGAGTCACCTAGTGCAG”, the binding signal is 5830 fluorescence intensity (a.u.).

Turning to “GGGCTGACTGGAAAGTGCTGGTCTGTTTCTACTTAATCTGCGGAGTCACCTAGTGCAG”, the binding signal is 6740 fluorescence intensity (a.u.).

For “CACTAATCAGTAATCAAGTATAATCAGTTCGGTTTCCGCACGGAGTCACCTAGTGCAG”, the binding signal is 29300 fluorescence intensity (a.u.).

For “ATGTGGTAGTTGATTTAGACAAAACAATTACCACTAGATACGGAGTCACCTAGTGCAG”, the binding signal was 4950 fluorescence intensity (a.u.).

As to “GCTCAATTAACGCACCGATTAAGTTGGTTCATCAGATTAGCGGAGTCACCTAGTGCAG”, the binding signal is 11800 fluorescence intensity (a.u.).

For the sequence “AGATGATTTGGAGGCAGTAGTTGAGCAGTGAGAAACTCGACGGAGTCACCTAGTGCAG”, the binding signal was 7120 fluorescence intensity (a.u.).

In the case of “CATACAAGATTGGCTACATGGGCATCGAGAAATGTAAATACGGAGTCACCTAGTGCAG”, the binding signal was 5940 fluorescence intensity (a.u.).

As to “ACCTTAATCACAAACTCTCTAGTACACCGTGTTTGAACACCGGAGTCACCTAGTGCAG”, the binding signal is 4190 fluorescence intensity (a.u.).

With “CATGATTGCTCATCTTTGTATTAAAAGAAATAATTTATGTCGGAGTCACCTAGTGCAG”, the binding signal was 53500 fluorescence intensity (a.u.).

For the sequence “GCTGATTTAAGGTTACGTGGGTGTGCTTGAGAAGAAGGGGCGGAGTCACCTAGTGCAG”, the binding signal was 20300 fluorescence intensity (a.u.).

“TGAGTCTGATTTACAAAAGACAGTTTTAATTTTGGTGTTCCGGAGTCACCTAGTGCAG”: the binding signal is 11600 fluorescence intensity (a.u.).

Turning to “AATCCAATTAAGCTGCGTACATCGCACATTTCGTGCTGCCCGGAGTCACCTAGTGCAG”, the binding signal was 5030 fluorescence intensity (a.u.).

In the case of “AGCACATGATTAATTAAGCTTTAATCATTATAAACTTGATCGGAGTCACCTAGTGCAG”, the binding signal is 41000 fluorescence intensity (a.u.).

Turning to “CGAAATTTGTTACGTGACATCGTAGCTTTATATGGAAAATCGGAGTCACCTAGTGCAG”, the binding signal was 4380 fluorescence intensity (a.u.).

Take “AATTAACATCAATAACAAAGTGTTGTACTGTAATCATCTTCGGAGTCACCTAGTGCAG”: the binding signal was 4050 fluorescence intensity (a.u.).
